The whole screen tested about 110,000 compounds, of which about 20 (0.02%) were called active. Inconclusive means that the source gave no clear call. Such entries were picked first, then a sample of the others. Calls come from the whole dose curve; as a rule, active = well fitted activation curve with a large enough effect; inconclusive = small, poorly fitted or top-dose-only effect; inactive = no such curve, though single readings can be large or run the other way. No potency is given beside an inconclusive call; the fits are too rough.
Assay: qHTS Assay for Compounds that Induce Erasure of Genomic Imprints;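 for activity change, positive = activation: 0% = negative control wells on the plate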
Conditions: mouse ES Peg3-LacZ reporter, beta-gal luminescence, 40 h; activity change, positive = activation: at 10.9 µM (top of the series) unless noted
Summary of the method: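 Each well holds 300 Peg3LacZ-Neo (maternal) female ES cells incubated 40 h at 37C, 5% CO2. LacZ is measured by BetaGlo luminescence, with AC50 and maximum efficacy derived from dose-response curves.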
Potency is the fitted concentration of half-maximal effect; tags give direction and shape of the fitted curve.

Compound | activity change, positive = activation | Potency
Cc1cc(NC(=O)c2ccc(Br)o2)cc(-c2nc3ccccc3o2)c1O | inconclusive: 41.6% [activator] | –
O=C(Nc1ccc(Cl)cc1)C1CCCN(S(=O)(=O)c2ccc3[nH]c(=O)ccc3c2)C1 (stereo unspecified) | inconclusive: 36.2% [activator] | –
COc1ccccc1-c1nccc(NC2CCNCC2)n1 | – | inconclusive [activator, single point]
c1cncc(CNc2nc(-c3ccc4c(c3)OCO4)nc3ccccc23)c1 | – | inconclusive [activator, partial curve, poor fit]
N#Cc1c(NC(=O)c2cc(-n3cnnc3)ccc2Cl)sc2c1CCCC2 | – | inconclusive [activator, single point]
Cc1cccc(CSc2nc3c(sc4ccccc43)c(=O)n2CCC(=O)NC(C)C)c1 | inconclusive: 36.8% [activator] | –
c1csc(CNc2nc(-c3ccoc3)nc3ccccc23)c1 | – | inconclusive [activator, partial curve]
CSC1=C(C#N)C(CC(C)C)C2=C(CCCC2=O)N1 (stereo unspecified) | – | inconclusive [activator, single point]
CCOc1ccccc1NC1(c2ccccc2)C(=O)c2ccccc2C1=O | inconclusive: 35.7% [activator] | –
Cc1ccc(Cl)cc1NC(=O)CSc1nc2ccccc2c2nc(-c3ccccc3)nn12 | inconclusive: 51% [activator] | –
CCOc1ccc(CCNC(=O)c2cc3c(=O)n(CC)c4ccccc4c3s2)cc1OCC | inconclusive: 30.7% [activator] | –
Cc1ccc(NC(=O)c2sc3ncn(Cc4cccc(F)c4)c(=O)c3c2C)c(Br)c1 | inconclusive: 58.9% [activator] | –
COc1ccc(-c2cc(C(F)(F)F)nc(SCC(=O)Nc3cc(C)on3)n2)cc1OC | inactive: -6.85% [at 60.7 µM] | –
O=c1cnc2cnc(Oc3cccc(Cl)c3)nc2n1CCc1ccccc1 | – | inconclusive [activator, partial curve]
O=C(Cc1cccs1)Nc1c(C(=O)Nc2ccc(F)cc2)oc2ccccc12 | inconclusive: 32.2% [activator] | –
COc1ccc(-n2c(=O)cc(N3CC(C)OC(C)C3)[nH]c2=O)cc1 (stereo unspecified) | – | inconclusive [activator, single point]
S=c1ccss1 | inactive: 7.67% [at 60.7 µM] | –
COC(=O)c1ccccc1NC(=O)c1ccc(F)cc1 | inactive: -12.9% [at 60.7 µM] | –
Cc1ccccc1N=C1NC(=O)CS1 | inactive: -1.86% [at 60.7 µM] | –
O=c1c(-c2ccccc2)nc2cnc(N3CCOCC3)nc2n1CCc1ccccc1 | inactive: 1.6% [at 60.7 µM] | –
Cn1c(=O)c2c(nc(CN3CCOCC3)n2CC(O)CO)n(C)c1=O (stereo unspecified) | – | inconclusive [activator, single point]
O=C(O)CC[C@@H](C(=O)O)N1C(=O)[C@@H]2[C@@H]3CC[C@H](C3)[C@@H]2C1=O | – | inconclusive [activator, single point]
Cc1ccc2c(c1)N(C(=O)CCC(=O)Nc1ccccc1Cl)CC(C)O2 (stereo unspecified) | inconclusive: 43.2% [activator] | –
CCCCNC(=O)CN(C1CCCCC1)S(C)(=O)=O | – | inconclusive [activator, single point]

Compound | activity change, positive = activation | Potency
Cc1cc(SCC(=O)Nc2c(C)n(C)n(-c3ccccc3)c2=O)n2c(nc3ccccc32)c1C#N | inactive: 2.78% [at 60.7 µM] | –
O=C(CSc1nnc(NC(=O)NC2CCCCC2)s1)Nc1ccccc1F | inactive: 7.19% | –
COc1ccc2oc(=O)c(-c3csc(/C(C#N)=C/c4ccc(F)cc4)n3)cc2c1 | inconclusive: 35.4% [activator] | –
Cc1ccc(NC(=O)N2CCC(N3CCN(Cc4ccccc4)C(=O)C3=O)CC2)cc1Cl | inconclusive: 30.7% [activator] | –
Cn1c(=O)c2c(SCc3cccnc3)nc(C3CC3)nc2n(C)c1=O | inactive: -12.6% [at 60.7 µM] | –
COc1ccc(-c2nsc(NC(=O)COc3ccc(C)c(C)c3)n2)cc1 | inconclusive: 36.9% [activator] | –
CCn1c(=N)c(C(=O)NC)cc2c(=O)n3cccc(C)c3nc21 | – | inconclusive [activator, partial curve]
CC(=O)Nc1nonc1-c1ccccc1 | – | inconclusive [activator, single point]
CCCCC(=O)NC(Nc1cc(C)ccn1)(C(=O)OCC)C(F)(F)F (stereo unspecified) | – | inconclusive [activator, single point]
COC(=O)c1cn(NC(=O)c2cccc(N(C)C)c2)c(=O)c2ccccc12 | – | inconclusive [activator, single point]
O=c1c2cnn(-c3ccccc3)c2ncn1Cc1cccnc1 | – | inconclusive [activator, single point]
Cc1c(NC(=O)Nc2ccc(Cl)cc2)c(=O)n(-c2ccccc2)n1C | – | inconclusive [activator, single point]
CN(C)S(=O)(=O)c1ccc(C(=O)N(Cc2cccnc2)c2nc3c(F)cc(F)cc3s2)cc1 | inactive: -7.79% | –
O=C(Cn1c(=O)c2cccn2c2ccc(F)cc21)NCc1cccc(Cl)c1 | inactive: -19.5% | –
O=C(NC1CC(=O)N(c2ccc(Cl)cc2)C1)C(=O)c1c[nH]c2ccccc12 (stereo unspecified) | inconclusive: 55.3% [activator] | –
CN(C)C(=O)c1ccc(-c2nccc(NCc3cccs3)n2)cc1 | – | inconclusive [activator, single point]
O=C(Nc1nc(-c2ccc(S(=O)(=O)N3CCCC3)cc2)cs1)C1COc2ccccc2O1 (stereo unspecified) | – | inconclusive [activator, partial curve]
O=C(NCC(c1cccnc1)N1CCN(c2ccc(F)cc2)CC1)c1ccc(F)cc1 (stereo unspecified) | – | inconclusive [activator, single point]
COc1ccccc1CNc1ncnc2c1nnn2C | inconclusive: 37.1% [activator] | –
COC(=O)c1ccccc1NC(=O)CCS(=O)(=O)c1nc(-c2ccc3c(c2)OCO3)cc(C(F)(F)F)n1 | inconclusive: 54% [activator] | –
O=C(NCc1ccc2c(c1)CCN2C(=O)c1ccncc1)c1ccccc1F | inconclusive: 34.2% [activator] | –
CCOc1cc(S(=O)(=O)NCCc2c(C)[nH]c3ccc(C)cc23)ccc1Br | inconclusive: 49.6% [activator] | –
O=c1c2oc3ccccc3c2n(Cc2cccc(F)c2)c(=O)n1Cc1ccc2c(c1)OCO2 | inactive: -18.2% | –
CCc1ccc(NC(=O)Cn2c(=O)c3cc(Cl)ccc3n3nncc23)cc1 | inconclusive: 33.1% [activator] | –

Compound | activity change, positive = activation | Potency
CCCn1c(CN(C)Cc2ccccc2)nc2c1c(=O)n(C)c(=O)n2C | inactive: -12.9% [at 60.7 µM] | –
N#C[C@H](Cc1ccc(O)cc1)c1ccc(O)cc1 | – | inconclusive [activator, single point]
CC(=O)Oc1ccc2c(c1)c(C(C)=O)c(C)n2C | – | inconclusive [activator, single point]
CN(C)C(=O)c1ccc(-c2nc(N3CCOCC3)c3ccccc3n2)cc1 | – | inconclusive [activator, partial curve]
CCn1c(=O)c(C)nn2c3ccccc3nc12 | inactive: -4.29% [at 60.7 µM] | –
Cc1ccc(/C=C/c2onc(C)c2S(=O)(=O)N2CCC(C(=O)Nc3ccc(Br)c(C)c3)CC2)cc1 | inconclusive: 68.1% [activator] | –
Cc1ccc(CNS(=O)(=O)c2cc3c(cc2Cl)NC(=O)CO3)o1 | inconclusive: 41% [activator] | –
CC(=O)n1c2ccccc2c2c(C#N)c(N3CCCCC3)sc21 | inactive: -0.896% [at 60.7 µM] | –
CN1CCC(=C2c3ccccc3Sc3ccccc32)CC1 | – | inconclusive [activator, single point]
CC(=O)NCCNc1cc(-c2ccccc2C(F)(F)F)ncn1 | – | inconclusive [activator, single point]
Cc1cc(C)c2c(n1)sc1c(=O)n(-c3ccccc3C(F)(F)F)nnc12 | inconclusive: 30.5% [activator] | –
O=C(Nc1ccc2c(c1)OCO2)N1CCN(C/C=C/c2ccccc2)CC1 | – | inconclusive [activator, full curve]
Cc1cccc(-n2c(CCCN3C(=O)c4ccccc4C3=O)nc3ccccc3c2=O)n1 | – | inconclusive [activator, partial curve]
COc1cccc(-c2nc(N(C)C)c3ccccc3n2)c1 | – | inconclusive [activator, single point]
O=C(CSCCO)Nc1ccc(C2CCCCC2)cc1 | – | inconclusive [activator, single point]
COc1ccc2c(c1)c1c(c(=O)n(Cc3ccccc3)c(=O)n1Cc1cccc(Cl)c1)n2C | inconclusive: 37.1% [activator] | –
COc1cccc(-c2nccc(NCc3cnc(C)cn3)n2)c1 | – | inconclusive [activator, single point]
O=C(OC(C(=O)NCc1cccs1)c1ccc(F)cc1)c1ccco1 (stereo unspecified) | – | inconclusive [activator, single point]
O=c1c2ccccc2nc2n1CCCCN2 | – | inconclusive [activator, partial curve]
O=C(CSC1=NCCS1)Nc1ccc(S(=O)(=O)N2CCCCCC2)cc1 | – | inconclusive [activator, single point]
O=C(CSc1nc(=O)[nH]c2c1CCC2)NCc1ccccc1Cl | inconclusive: 30.5% [activator] | –
Cc1ccc(C(=O)NCC(c2ccc(Cl)cc2)N2CCCCC2)cc1 (stereo unspecified) | inconclusive: 37.1% [activator] | –
O=C(O)c1ccc(NC(=O)c2ccc(Cl)c(S(=O)(=O)N3CCCCCC3)c2)cc1 | inconclusive: 68.2% [activator] | –

From PubChem BioAssay AID1948 (National Center for Advancing Translational Sciences (NCATS), 2009)
